Experimental data taken from PubChem BioAssay AID1508624 (National Center for Advancing Translational Sciences (NCATS), 2021).
In all, about 48,000 compounds went through this assay and about 120 (0.25%) were called active. Not shown: some 4% with an inconclusive outcome. Calls come from the whole dose curve; as a rule, active = well fitted activation curve with a large enough effect; inconclusive = small, poorly fitted or top-dose-only effect, or another doubt; inactive = no such curve, though single readings can be large or run the other way. This is one part of the list.

Experiment: Primary qHTS for Identification of Small Molecule Activators of Huntingtin-Antisense Promoter Activity; note: nearly all actives have a fitted effect of over 55% in size
Details: HEK293 HTT-AS promoter firefly luciferase reporter (activity 0% = vehicle and -100% = no light), 24 h; series mostly up to 57.5 µM; activity change, positive = activation: at the top concentration
Procedure, shortened: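 Firefly luciferase signal from promoter-reporter HEK293 cells was scaled between vehicle (0%) and zero RLU (-100%). Compounds were tested at final concentrations of up to 57.5 uM over 24 h at 37 degrees C. PTC124 at 50 uM final served as control inhibitor.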

Row | Structure (SMILES) | activity change, positive = activation
1 | CC(C)(C)c1ccc(S(=O)(=O)NCc2ccc3c(c2)CCN3C(=O)c2ccccc2)cc1 | inactive: -44.9%
2 | O=C(Cn1c(=O)ccc2cc(S(=O)(=O)N3CCCC3)ccc21)NCc1ccc(Cl)cc1 | inactive: -16.3%
3 | O=C(c1ccc(Cl)cc1)N1CCC(c2ccncc2)CC1 | inactive: -30.4%
4 | CCN(CC)S(=O)(=O)c1ccc2nc(NC(=O)c3cccnc3)sc2c1 | inactive: -11.3%
5 | COc1cc(-c2noc(-c3ccc(N4CCN(C)CC4)c([N+](=O)[O-])c3)n2)cc(OC)c1OC | inactive: -7.58%
6 | CCOC(=O)c1cc(S(=O)(=O)NCc2ccccc2)[nH]n1 | inactive: -6.68%
7 | CCC(CO)NC(=O)C(=O)Nc1c2c(nn1-c1ccc(F)cc1)CSC2 (configuration not stated) | inactive: -16.9%
8 | CCOc1ccc(CCNC(=O)c2ccc3c(c2)c(C)c(C)n3C)cc1 | inactive: -12.8%
9 | COC(=O)c1ccc(NC(=O)CSc2nc(=O)n(Cc3ccco3)c3c2CCC3)cc1 | inactive: -28.8%
10 | CN1C(=O)CC(C)(c2ccccc2)C1=O (configuration not stated) | inactive: -10.5%
11 | COc1cc(C(=O)N(Cc2ccc(C(C)C)cc2)C2CCS(=O)(=O)C2)cc(OC)c1OC (configuration not stated) | inactive: -4.54%
12 | COc1cc(NC(=O)c2nnn(Cc3ccc(F)cc3)c2N)cc(OC)c1 | inactive: 0%
13 | CCOC(=O)c1cnn(-c2ccc(OC)cc2)c1C1CCN(C(=O)OC(C)(C)C)CC1 | inactive: -21.9%
14 | Cc1cccc(-c2nc(SCc3ccc(Br)cc3)n3[nH]c(=O)cc3n2)c1 | inactive: 9.01%
15 | CSc1nc2sc3c(c2c(=O)n1-c1ccc(C)c(Cl)c1)CCN(C(C)=O)C3 | inactive: -10.4%
16 | Cc1ccc(N2CC3=C(C2=O)C(c2ccc(Br)cc2)NC(=O)N3C)cc1 (configuration not stated) | inactive: -13.6%
17 | CC(C)c1ccc(NS(=O)(=O)c2ccc3[nH]cc(C(=O)NC4CCCC4)c(=O)c3c2)cc1 | inactive: -11.9%
18 | O=C(Cn1c(=O)oc2cc(S(=O)(=O)N3CCCCCC3)ccc21)Nc1cccc(C(F)(F)F)c1 | inactive: -38%
19 | CCn1c(=O)cc(SCC(=O)Nc2ccc(C)c(F)c2)c2ccccc21 | inactive: 0%
20 | O=C1Cc2cc(S(=O)(=O)N3CCN(c4ccccc4)CC3)ccc2N1 | inactive: -16.6%
21 | Cc1ccccc1Nc1sc(C(=O)c2ccc3c(c2)OCO3)c(N)c1S(=O)(=O)c1ccccc1 | inactive: 10.3%
22 | Cc1ccc(-c2nc(C(=O)NCc3ccc(Cl)cc3)c3n2CCCCC3)cc1 | inactive: -42%
23 | CCC(=O)N1CCc2cc(Br)cc(S(=O)(=O)NCCc3ccc(OC)c(OC)c3)c21 | inactive: -11.9%
24 | CC(=O)C1=C(OC(=O)C(C)C)c2ccccc2S(=O)(=O)N1Cc1ccccc1 | inactive: -11.2%
25 | O=C(NCCCc1nc2ccccc2n1Cc1ccccc1Cl)C1CCCCC1 | inactive: -34.3%
26 | Cc1[nH]n2c(=O)cc(-c3ccccc3Cl)nc2c1-c1ccccc1 | inactive: -41.5%
27 | CCN(CC)CCNC(=O)c1ccc(NC(C)=O)cc1 | inactive: -12.9%
